# Test results from PubChem BioAssay AID485344 (National Center for Advancing Translational Sciences (NCATS), 2010).
# Among all 340,000 compounds or so, about 6,900 (2%) were called active. Rule as the data show it: active = inhibition above about 30%; inactive = below that, where a call was filed. The list shows a part of the results, in another mix than the full data. Entries without a call were filed so in the source.
# Biological target: D(2) dopamine receptor (Homo sapiens) (UniProt P14416)
# Chain of UniProt P14416 (P14416 whole entry, looked up): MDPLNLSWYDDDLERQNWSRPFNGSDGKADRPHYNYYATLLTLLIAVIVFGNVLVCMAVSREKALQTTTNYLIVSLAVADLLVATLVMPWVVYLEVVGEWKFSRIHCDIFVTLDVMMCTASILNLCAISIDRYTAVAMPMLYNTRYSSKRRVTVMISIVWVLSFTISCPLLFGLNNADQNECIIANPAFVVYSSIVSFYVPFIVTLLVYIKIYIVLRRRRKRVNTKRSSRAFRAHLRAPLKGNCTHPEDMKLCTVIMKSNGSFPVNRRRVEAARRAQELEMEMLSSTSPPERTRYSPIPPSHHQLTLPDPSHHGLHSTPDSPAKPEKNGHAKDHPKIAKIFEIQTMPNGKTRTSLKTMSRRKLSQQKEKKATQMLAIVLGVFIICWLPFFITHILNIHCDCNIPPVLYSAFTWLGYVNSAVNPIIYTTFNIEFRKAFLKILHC
# Assay: HTS Assay for Allosteric Antagonists of the Human D2 Dopamine Receptor: Primary Screen for Antagonists; also: 0% is about no effect
# Settings: HEK293 TREx D2 cells, calcium flux, dopamine EC80; at 10 µM; stronger effect = higher value
# In short: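 In this primary screen, negative modulation is detected by tracking calcium flux after an EC80 dopamine challenge in inducible HEK293 T-REx D2 cells preexposed to test compound for 180 s.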
row,SMILES,inhibition
1,COC(=O)c1cc2oc3ccccc3c2n1CC(=O)Nc1ccc(Cl)cc1F,-5.87%
2,COc1cccc(-n2c(SCC(=O)Nc3c(C)cc(C)cc3C)nc3c([nH]c4ccccc43)c2=O)c1,10.7%
3,COc1cccc2c1cc1c(=O)n(CC(=O)NCc3ccc(C)o3)nc(C)n12,9.97%
4,Cc1ccc(CCNC(=O)c2cc3c(s2)-c2c(C)cccc2OC3)cc1,-7.69%
5,COc1cccc(CNC(=O)c2ccc(-c3nc(COc4ccccc4)c(C)o3)cc2)c1,-0.424%
6,CCc1ccc(N2CCN(CCNC(=O)Nc3ccccc3)CC2)cc1,active: 73.5%
7,CCOc1ccc(C2CC(c3c(O)n(C4CCCCC4)c(=O)[nH]c3=O)=Nc3ccccc3S2)cc1 (stereo unspecified),-8.95%
8,Cc1ccc2nc(COc3ccccc3NC(=O)C(C)(C)C)cc(=O)n2c1,-11.7%
9,Cc1ccc(NS(=O)(=O)c2ccc(-n3cccn3)cc2)cc1Cl,-0.568%
10,O=C(CSc1nnc2ccc3ccccc3n12)Nc1ccccc1Cl,-8.8%
11,O=C(Cc1ccc(F)cc1)NCc1ccc2c(c1)CCN2C(=O)c1ccc(F)cc1,-6.27%
12,CCOC(=O)N1CCc2c(sc3c2c(=O)n(-c2ccccc2C(F)(F)F)c(=O)n3Cc2ccccc2C)C1,-0.531%
13,Cc1nn(-c2ccc(F)cc2)c(-n2cccc2)c1C(=O)NCCc1ccc(Cl)cc1,-0.0679%
14,Cc1cc(C)n2nc(CNS(=O)(=O)c3ccc(C)c(C)c3)nc2n1,13.1%
15,COc1ccc(NC(=O)CSc2nc3nc(C)c(Cc4ccccc4)c(C)n3n2)cc1OC,22.8%
16,O=C(C1CCN(S(=O)(=O)c2cccc3nonc23)CC1)N1CCN(c2cccc(Cl)c2)CC1,20.7%
17,Nc1nc(SCC(=O)Nc2ccc(Cl)cc2)[nH]c(=O)c1-c1ccccc1,active: 35.6%
18,CCc1ccc(NC(=O)CN2C(=O)C(c3ccc(C)cc3)=NC23CCCCC3)cc1,-4.73%
19,CCc1ccc(CNC(=O)Cn2nc(C)n3c(cc4cc(C)ccc43)c2=O)cc1,19.4%
20,Cc1cccc(Cn2cccc2CNS(=O)(=O)c2ccccc2F)c1,-4.76%
21,COc1ccc(NC(=O)C(Cc2ccccc2)NS(=O)(=O)c2ccc3c(c2)CCC(=O)N3)c(OC)c1 (stereo unspecified),-6.49%
22,CCOc1ccccc1CNC(=O)C1CCN(c2nnc(-n3c(C)ccc3C)s2)CC1,-2.75%
23,CCCCOc1ccc(C2=NC(c3ccncc3)=Nc3ccc(OCC)cc3N2)cc1,3.18%
24,Cc1cc(C)n(CCCNC(=O)C(C)(C)Oc2ccc(Cl)cc2)n1,active: 30.7%

row,SMILES,inhibition
1,O=C(Cn1c(=O)n(CC2CCC(C(=O)NCCc3ccccc3)CC2)c(=O)c2ccccc21)Nc1ccccc1 (stereo unspecified),2.76%
2,COc1ccc2sc(N(Cc3cccnc3)C(=O)C3CCCCC3)nc2c1,-9.59%
3,CCOC(=O)c1cccc(NC(=O)c2cc3ccccn3n2)c1,-1.14%
4,Cc1ccc(C)c(N2CCN(C(=O)c3cc4c(=O)n(Cc5ccccc5)ccc4nc3C)CC2)c1,6.62%
5,Cc1ccc2c(c1)N(C(=O)N1CCC(C(=O)NCCc3ccc(Cl)cc3)CC1)CC(C)O2 (stereo unspecified),-9.68%
6,Cc1cccc(NS(=O)(=O)c2ccc3[nH]c4c(c3c2)CCCCCC4)c1,0.164%
7,CCOc1cccc2c1N[C@@H](c1ccc(C(=O)O)cc1)[C@H]1CC=C[C@@H]21,7.57%
8,Cc1ccc(-n2nc(C)c3c(C)c(CCC(=O)NCc4ccccc4Cl)c(C)nc32)cc1C,5.41%
9,COc1cc(OC)cc(C(=O)Nc2ccc([N+](=O)[O-])cn2)c1,active: 50.2%
10,CCOC(=O)c1cc(-c2ccc(F)cc2)n(CC(=O)NC2CCCCCC2)c1C,-6.43%
11,COc1ccc(NC(=O)c2c(NC(=O)COc3ccccc3)sc3c2CCC(C(C)(C)C)C3)cc1 (stereo unspecified),4.06%
12,Cc1ccc(CN(Cc2ccco2)C(=O)c2ccc(OCC(C)C)cc2)cc1,-16.9%
13,CCCCN1CCc2nc(Nc3ccc(OC)cc3OC)ncc2C1,-10.8%
14,CC(C)c1nn2c(=O)cc(COC(=O)c3ccc(NC(=O)C4CCCCC4)cc3)nc2s1,-3.47%
15,COc1ccc2[nH]c3c(c2c1)CCN(C(=O)c1cccc(Cl)c1)C3c1ccc(F)cc1 (stereo unspecified),5.29%
16,Cc1ccc(S(=O)(=O)N2CCCc3cc(NS(=O)(=O)c4cc(C)ccc4C)ccc32)cc1,19%
17,COc1ccc(-c2cc(-c3ccccc3)nc3c2COc2ccc(F)cc2-3)cc1,-7.74%
18,CCN(CC)C(=O)Cn1c(=O)cc(C)c2c(C)nn(-c3ccc(C)cc3)c21,24.8%
19,CCOc1ccc(NC(=O)c2cc(OC)nc3ccccc23)cc1,active: 56.9%
20,CCOc1ccc(NC(=O)c2ccc3c(c2)CCN3S(=O)(=O)CC)cc1,8.68%
21,O=C(CC1C(=O)N(c2ccccc2)C(=O)N1Cc1ccc(F)cc1)Nc1cccc(F)c1 (stereo unspecified),-13.7%
22,COc1ccc(-c2cn3cccnc3n2)cc1NC(=O)Nc1ccc(Cl)cc1,-5.88%
23,Cc1ccc(C(=O)c2oc3ccccc3c2NC(=O)COc2ccc(C(C)C)cc2)cc1,10.9%
24,CCn1cc(C(=O)N[C@@H](C)C(=O)OC)c(=O)c2cc3c(cc21)OCO3,active: 44.4%

row,SMILES,inhibition
1,O=C(Nc1ccc(S(=O)(=O)Nc2ncccn2)cc1)c1cc(=O)c2ccccc2o1,8.89%
2,Cc1sc2c(c1C)c(=O)n(Cc1ccccc1)c(=O)n2Cc1ccc(F)cc1,-3.8%
3,COc1ccc(NC(=O)c2c(-c3ccccc3)c(-c3ccccc3)nn(C)c2=O)cc1OC,15.5%
4,Cc1cccc(-n2ncc3c(Nc4ccc(C)c(Cl)c4)ncnc32)c1,9.32%
5,Cc1ccc(C)c(Cn2c(=O)n(C(C)C)c(=O)c3oc4ccccc4c32)c1,-1.01%
6,Cc1ccccc1NC(=O)CCS(=O)(=O)c1cc(Br)cc2c1N(C(=O)C1CC1)CC2,13.2%
7,CCc1nn(CC(=O)N2CCCCC2)c(=O)c2cc3sc(C)cc3n12,-3.16%
8,Cc1ccccc1CNC(=O)CN1C(=O)C2CCCCN2c2ccc(C(=O)N3CCCC3)cc21 (stereo unspecified),1.46%
9,O=C(Nc1ccc2c(c1)N(C1CCCC1)C(=O)c1ccccc1S2)c1ccccc1F,0.363%
10,CC1CC(C)CN(CCOc2ccccc2-c2ccccc2)C1 (stereo unspecified),active: 78.8%
11,CCOC(=O)c1cccc(NC(=O)C2Cc3ccccc3N2C(=O)c2ccccc2)c1 (stereo unspecified),-1.54%
12,CCOc1ccc(C(=O)NC2CC(=O)N(c3ccc(C)cc3)C2)cc1OCC (stereo unspecified),13.8%
13,Cc1ccc(-c2nc(NC(=O)CSc3nc(C)nc4sc5c(c34)CCCC5)ns2)cc1,2.7%
14,Cc1ccc(Nc2nc3ccccc3c3nncn23)c(Cl)c1,-16.2%
15,CC1CCN(S(=O)(=O)c2ccc3c(ccn3CCC(=O)NCc3ccccc3F)c2)CC1,-6.04%
16,Cc1csc(/C(=N/OC(=O)c2ccco2)C(N)=O)n1,active: 41.7%
17,CCOC(=O)c1cc2occc2n1Cc1ccc(F)cc1,active: 34.2%
18,Nc1ccc(C(=O)N/N=C\c2ccc(OC(=O)c3ccccc3Cl)cc2)cc1,active: 32.6%
19,Cc1ccc(C)c(S(=O)(=O)c2nnn3c2nc(NC2CCCCC2)c2sccc23)c1,-6.69%
20,CCc1ccc(-n2nc(CO)c(C(=O)NCCCc3ccccc3)n2)cc1,-21.3%
21,CCSc1ccccc1C(=O)Nc1ccc(-c2nc3ccccc3s2)c(O)c1,-7.2%
22,Cc1ccccc1Cn1c2ccccc2c2cnn(CC(=O)NCc3ccccn3)c(=O)c21,-2.17%
23,Cc1ccc(C)c(N2CCN(C(=O)NCc3noc4ccc(C)cc34)CC2)c1,2.48%
24,O=C(NCCc1ccccc1)C1CCC(CNS(=O)(=O)c2ccc(Cl)cc2)CC1 (stereo unspecified),-4.76%

row,SMILES,inhibition
1,Cc1ccccc1OCC(=O)Nc1cccc(C(=O)OCc2cc(=O)n3c(C)csc3n2)c1,9.35%
2,Cc1ccc(S(=O)(=O)Cc2ccc(C(=O)N3CCN(c4cccc(Cl)c4)CC3)o2)cc1,-7.87%
3,O=C(Cn1c(=O)n(-c2ccc(Cl)cc2)c(=O)c2sc3ccccc3c21)NC1CCCC1,-14%
4,COC(=O)c1ccccc1NC(=O)c1cc2cc(C)ccc2n1C,6.94%
5,CCOc1ccc(-c2c(C)nn3c(C)c(C(=O)NCCc4ccc(Cl)cc4)cnc23)cc1OCC,-20.8%
6,CCc1nc2cccnc2n1-c1ccc(CC(=O)Nc2cccc(C)c2C)cc1,4.81%
7,c1ccc(CN2CCN(c3ncnc4c3cnn4-c3ccccc3)CC2)cc1,8.98%
8,CCC1=Nc2cc(C(=O)NCCN(CC)CC)ccc2Sc2ccccc21,8.62%
9,Cc1ccc(NC(=O)c2cc(S(=O)(=O)N3CCc4ccccc43)cn2C)c(Cl)c1,5.33%
10,CCc1cccc(NC(=O)C2CCC(CNS(=O)(=O)c3ccc(Br)s3)CC2)c1 (stereo unspecified),22.3%
11,O=C(Nc1cccc(F)c1)c1ccc2c(c1)N(Cc1ccccc1)C(=O)c1ccccc1S2(=O)=O,-2.26%
12,O=C(COc1ccc(Cl)cc1)OCc1cc(=O)n2nc(C3CC3)sc2n1,-18.2%
13,COc1ccc(C(=O)NCC(c2ccc(N(C)C)cc2)N2CCc3ccccc32)cc1OC (stereo unspecified),-6.98%
14,COC(=O)c1ccccc1NC(=O)C1CCN(C(=O)N2CC(C)Oc3ccccc32)CC1 (stereo unspecified),-4.69%
15,COc1ccc(-c2nc3ccccc3s2)cc1NC(=O)c1ccc(F)cc1,-10.6%
16,Cc1cccc(NC(c2ccccc2F)c2ccc3ccc(C)nc3c2O)n1 (stereo unspecified),10.2%
17,Cc1ccc(OCC(=O)Nc2ccccc2OCc2cc(=O)n3ccccc3n2)cc1C,3.55%
18,O=C(Nc1nnc(S(=O)(=O)N2CCCCC2)s1)c1ccccc1Br,-4.72%
19,Cc1ccc(NC(=O)c2ccc3c(O)c(S(=O)(=O)c4ccccc4)c(=O)[nH]c3c2)cc1Cl,19.7%
20,Cc1ccc(-c2nnc(Nc3ccc(C(=O)N(C)C)cc3)c3ccccc23)cc1S(=O)(=O)N(C)C,0.0097%
21,CCN(C(=O)CN1C(=O)COc2ccc(S(=O)(=O)N3CCOCC3)cc21)c1ccc(OC)cc1,-10.8%
22,O=C(Cc1csc2nc(-c3ccc(F)cc3)cn12)NCc1ccccc1,19.7%
23,O=[N+]([O-])c1cc(-c2nc(-c3ccccc3)no2)ccc1NC1CCCCC1,-0.985%
24,C=Cc1ccc(Cn2c(C)c(CNCc3ccccc3C)c(C(=O)O)c2C)cc1,2.4%
